# According to paper PMC4336329 (PLoS ONE, 2015):
# Out of some 310,000 compounds screened, about 14,000 (4.5%) showed an effect of 50% or more. The effect is printed as a negative number. The list shows a part of the results.
# Biological target: human ether-à-go-go-related gene (hERG) potassium channel (human, UniProt Q12809)
# Test: primary screen, population patch clamp on CHO cells stably expressing hERG
# 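Further: peak tail current of the secondary pulse compared with the same well before compound.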
# human ether-à-go-go-related gene (hERG) potassium channel, sequence (Q12809 whole entry, looked up): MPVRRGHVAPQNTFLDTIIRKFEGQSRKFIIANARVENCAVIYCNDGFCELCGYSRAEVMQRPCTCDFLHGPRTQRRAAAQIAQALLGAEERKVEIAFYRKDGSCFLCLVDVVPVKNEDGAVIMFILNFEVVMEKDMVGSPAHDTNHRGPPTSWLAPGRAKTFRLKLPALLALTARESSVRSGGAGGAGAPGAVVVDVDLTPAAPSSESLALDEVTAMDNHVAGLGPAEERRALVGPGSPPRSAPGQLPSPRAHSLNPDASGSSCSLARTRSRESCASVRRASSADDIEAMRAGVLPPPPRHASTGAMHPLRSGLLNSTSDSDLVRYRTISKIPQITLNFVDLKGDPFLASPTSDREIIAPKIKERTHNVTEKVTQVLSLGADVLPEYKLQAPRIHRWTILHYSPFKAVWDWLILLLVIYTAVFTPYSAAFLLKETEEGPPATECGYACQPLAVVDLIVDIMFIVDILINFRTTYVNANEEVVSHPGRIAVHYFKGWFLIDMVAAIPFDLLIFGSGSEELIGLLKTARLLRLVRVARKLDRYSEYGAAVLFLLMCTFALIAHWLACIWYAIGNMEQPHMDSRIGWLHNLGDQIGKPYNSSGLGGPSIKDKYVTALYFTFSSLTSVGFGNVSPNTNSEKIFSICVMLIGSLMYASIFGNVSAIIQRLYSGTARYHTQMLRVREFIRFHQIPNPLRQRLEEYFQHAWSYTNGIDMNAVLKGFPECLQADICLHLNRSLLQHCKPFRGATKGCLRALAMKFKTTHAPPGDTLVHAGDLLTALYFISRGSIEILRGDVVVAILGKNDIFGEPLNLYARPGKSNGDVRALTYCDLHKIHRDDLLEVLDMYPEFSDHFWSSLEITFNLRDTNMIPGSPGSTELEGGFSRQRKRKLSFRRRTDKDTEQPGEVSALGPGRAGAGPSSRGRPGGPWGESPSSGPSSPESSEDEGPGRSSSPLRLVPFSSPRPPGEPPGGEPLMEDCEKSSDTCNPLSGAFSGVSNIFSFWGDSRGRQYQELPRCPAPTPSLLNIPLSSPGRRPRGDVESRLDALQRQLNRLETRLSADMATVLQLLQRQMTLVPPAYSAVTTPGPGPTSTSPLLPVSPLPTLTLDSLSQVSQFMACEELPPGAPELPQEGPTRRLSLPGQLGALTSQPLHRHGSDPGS
row,SMILES,"hERG current change (%, negative = inhibition) at 10uM [%]"
1,CCOc1ccc(C(=O)N2CCN(c3ccccc3)CC2)cc1OCC,-32.4
2,COc1ccccc1Nc1nnc(SCC(=O)N2CC(=O)Nc3ccccc32)s1,0.894
3,O=C1OCC2=C1C(c1ccc(F)cc1)CC(=O)N2c1ccc(F)cc1 (centres unmarked),-25.3
4,O=C1CCC(c2ccccc2)N1C(=O)c1cccnc1 (centres unmarked),-3.5
5,O=C(NC1CCCCCCC1)C1c2ccccc2C(=O)N1Cc1cccs1 (centres unmarked),-4.16
6,Cc1c(NS(=O)(=O)N2CCCC2)c(=O)n(-c2ccccc2)n1C,-4.23
7,COc1ccc(CSc2nnnn2C)cc1F,-6.74
8,CCCCCCCCCCC(=O)NNC(=O)c1c(O)c2ccccc2n(CC)c1=O,4.85
9,CCc1nc(SCC(=O)OC(C)C)c2ccccc2n1,2.3
10,COC(=O)C1=C(C(=O)OC)[C@@H]2Nc3ccccc3[C@@]23C[C@@H](C(=O)OC)N=C3N1,3.41
11,COc1cccc(N2CCN(C(=O)c3cc4c(s3)CCCCC4)CC2)c1,-2.33
12,CN(C)c1ccc(C(c2ccc(N(C)C)cc2)c2ccc([N+](=O)[O-])cc2)cc1,3.74
13,COc1ccccc1/C=C/CN1CCN(c2ccccc2)CC1,-15.6
14,COc1ccccc1N1CSC2=C(C#N)C(c3ccc(SC)cc3)CC(=O)N2C1 (centres unmarked),17.1
15,CC(OC(=O)c1cccc(-n2cnnn2)c1)C(=O)Nc1ccc(F)cc1Cl (centres unmarked),-34.6
16,COc1ccccc1C(=O)NC(=O)COc1ccc([N+](=O)[O-])cc1,9.66
17,Cc1ccc(N(CCC#N)C(=O)CSc2nnc3ccccn23)cc1,-8.44
18,Cc1ccc(N(CN2C(=O)C3C4CCC(C4)C3C2=O)C(=O)c2ccco2)cc1 (centres unmarked),2.88
19,CSc1nc(N(C)C)nc(N2CC(=O)N(CCNS(=O)(=O)c3ccc(C)cc3)C2=N)n1,-1.59
20,CC1CCc2c(sc(NC(=O)CSc3ncnc4c3cnn4-c3ccccc3Cl)c2C#N)C1 (centres unmarked),13.2
21,C=CCOc1ccccc1CN1CCC(Cc2ccccc2)CC1,-70.3
22,O=C(CSc1n[nH]c(=O)n1-c1cccnc1)Nc1ccccc1Cl,6.68

row,SMILES,"hERG current change (%, negative = inhibition) at 10uM [%]"
1,COc1ccccc1NC(=O)CC1S/C(=N/N=C2\CCCc3ccccc32)NC1=O (centres unmarked),7.92
2,COC(=O)C1C(=O)C2=C(CC1C)NC(C)=C(C(=O)OCCOc1ccccc1)C2c1ccc(C)o1 (centres unmarked),5.84
3,O=C(CNC(=O)c1ccccc1)NC1(C(=O)NC2CCCCC2)CCCCC1,-6.42
4,Cc1ccc(-c2nc3ccccc3c(=O)n2-c2cccnc2)cc1,-6.99
5,CCOc1ccc(NC(=O)CN(C)c2ccc(S(=O)(=O)N3CCOCC3)cn2)cc1OCC,10.4
6,Cc1cc(=O)n(CCCO)c(O)c1C#N,14.3
7,Cc1sc2ncnc(SCC(=O)NC3CCCC3)c2c1C,-0.805
8,O=C1CCN(Cc2ccc(O)cc2)CCN1[C@H](CO)Cc1ccccc1,2.51
9,Cc1cc(N2CCN(c3ccc(F)cc3)CC2)n2ncnc2n1,-57.6
10,FCCCOc1ccc(/C=N/OCc2ccc(Cl)cc2)cc1,-3
11,CSc1ccccc1NC(=O)CSCc1nc2sc(C)c(C)c2c(=O)[nH]1,-2.15
12,O=Cc1c(N2CCC3(CC2)OCCO3)nc2ccccn2c1=O,12
13,COc1ccccc1CN(Cc1cccnc1)S(=O)(=O)c1ccc(-n2cnnn2)c(OC)c1,-63
14,COc1cc(OC)c(OC)cc1/C=C1\CCC(C2CCCC2)C1=O (centres unmarked),0.112
15,CCCOc1ccc(Cc2nc(N)nc(N)n2)cc1,5.56
16,CN(CC(=O)Nc1ccccc1C(F)(F)F)C(=O)CC1OC(=O)c2ccccc21 (centres unmarked),9.27
17,COC(=O)c1ccc(C#Cc2ccccc2)o1,12.2
18,COc1ccccc1CN(C)C(C)C(=O)Nc1cccc(C(C)=O)c1 (centres unmarked),-12.2
19,NCC12CC3CC(C1)CC(CN)(C3)C2,1.08
20,CCOC(=O)N1CCN(CCC(=O)Nc2cccc(Cl)c2C)CC1.Cl,5.59
21,CC(C)(C)NC(=O)Cn1c(SCC(=O)NC2CC2)nc2ccccc21,4.14
22,N#Cc1ccccc1NC(=O)COC(=O)CCc1ccc(S(=O)(=O)N2CCCCC2)cc1,-5.4
